Experimental data: article PMC4336329 (PLoS ONE, 2015)
In all, about 310,000 compounds went through this assay and about 2,200 (0.71%) showed an effect of 50% or more. The effect is printed as a negative number. The list shows a part of the results.

Molecular target: human ether-à-go-go-related gene (hERG) potassium channel (human, UniProt Q12809)
Experiment: primary screen, population patch clamp on CHO cells stably expressing hERG

Chain of human ether-à-go-go-related gene (hERG) potassium channel (Q12809 whole entry, looked up): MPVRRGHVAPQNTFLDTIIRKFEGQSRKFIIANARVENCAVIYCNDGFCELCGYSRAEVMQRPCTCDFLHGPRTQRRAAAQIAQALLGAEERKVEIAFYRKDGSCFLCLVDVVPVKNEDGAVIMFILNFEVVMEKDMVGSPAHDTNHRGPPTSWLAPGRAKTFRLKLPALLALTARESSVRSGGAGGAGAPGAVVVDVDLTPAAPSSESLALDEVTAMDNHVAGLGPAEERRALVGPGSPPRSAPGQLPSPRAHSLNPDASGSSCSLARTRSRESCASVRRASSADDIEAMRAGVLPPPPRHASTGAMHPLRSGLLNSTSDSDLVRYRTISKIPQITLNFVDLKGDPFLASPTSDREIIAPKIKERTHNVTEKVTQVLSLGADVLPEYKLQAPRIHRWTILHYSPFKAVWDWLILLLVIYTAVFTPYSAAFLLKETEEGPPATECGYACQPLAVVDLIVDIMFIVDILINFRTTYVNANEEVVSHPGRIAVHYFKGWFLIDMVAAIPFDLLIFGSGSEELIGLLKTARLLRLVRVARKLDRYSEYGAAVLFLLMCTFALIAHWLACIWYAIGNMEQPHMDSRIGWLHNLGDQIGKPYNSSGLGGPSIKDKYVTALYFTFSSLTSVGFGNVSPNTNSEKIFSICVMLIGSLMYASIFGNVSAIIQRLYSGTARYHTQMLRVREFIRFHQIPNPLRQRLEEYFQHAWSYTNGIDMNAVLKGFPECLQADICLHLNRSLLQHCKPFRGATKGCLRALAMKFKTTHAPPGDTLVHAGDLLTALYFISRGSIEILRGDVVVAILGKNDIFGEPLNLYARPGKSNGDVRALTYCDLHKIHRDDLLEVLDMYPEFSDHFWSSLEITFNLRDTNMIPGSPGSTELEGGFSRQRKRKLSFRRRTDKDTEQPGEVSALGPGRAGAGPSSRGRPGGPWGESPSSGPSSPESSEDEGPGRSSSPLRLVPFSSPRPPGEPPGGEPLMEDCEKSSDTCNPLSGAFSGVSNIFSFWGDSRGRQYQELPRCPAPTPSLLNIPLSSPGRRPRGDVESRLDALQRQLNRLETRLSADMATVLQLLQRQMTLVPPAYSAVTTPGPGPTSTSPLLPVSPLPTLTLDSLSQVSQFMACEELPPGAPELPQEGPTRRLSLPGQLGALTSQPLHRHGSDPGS

Point of comparison: COc1ccc(C(=O)Nc2cccc(/C(C)=N/NC(=O)c3ccc([N+](=O)[O-])cc3)c2)cc1OC, “hERG current change (%, negative = inhibition) at 1uM” value 7.54%. Against it:
- CCOC(=O)C1(CC/C(C)=N\NC(N)=O)CC(C)OC1=O (centres unmarked) — lower, 0.102%
- O=C(CS(=O)c1cccc(Cl)c1)Nc1ccccc1Cl (centres unmarked) — lower, 4.93%
- O=C(C1CCN(Cc2ccc(Cl)cc2)CC1)N1CCN(Cc2ccc3c(c2)OCO3)CC1 — lower, -11.2%
- Cc1cccc(C)c1NC(=O)C(NC=O)c1ccc(Cl)cc1 (centres unmarked) — lower, 0.273%
- CN(CC(=O)NC1CC1)S(=O)(=O)c1cc(Cl)ccc1Cl — higher, 12.6%
- O=C(Nc1cnccn1)c1ccc(F)cc1Cl — lower, -5.32%
- COc1ccc2cc(C(=O)C3CCCN(Cc4ccccn4)C3)ccc2c1 (centres unmarked) — lower, -14.6%
- CCc1ccccc1NS(=O)(=O)Cc1ccccc1 — higher, 7.82%
- CC(C)N1CC(C(=O)Nc2ccc(S(=O)(=O)N3CCCCC3)cc2)CC1=O (centres unmarked) — higher, 16.3%
- O=C(COC(=O)CCc1ccccc1)Nc1cc(S(=O)(=O)N2CCOCC2)ccc1N1CCCC1 — higher, 22%
- O=c1nc(N(c2ccccc2)c2ccccc2)[nH]c(=O)[nH]1 — lower, -7.77%
- O=C(c1ccc2c(c1)OCCO2)N1CCN(c2ccccn2)CC1 — higher, 15.2%
- Cc1cc(/C=N/NC(N)=S)c(C)n1-c1ccc(Cl)cc1 — lower, 1.13%
- COc1ccc(/C=N/NC(=O)CN2CCCC2)cc1 — higher, 11.1%
- O=C(CN1C(=O)c2cccc3cccc1c23)NC1CCCC1 — higher, 15.4%
- COc1ccc(CN2CCN(C(=O)c3cccnc3)CC2)cc1Br.O=C(O)C(=O)O — higher, 8.44%
- Nc1ccccc1-c1nnc(-c2ccc(-c3ccccc3)cc2)o1 — higher, 8.03%
- c1ccc(-n2cnc3ccccc32)nc1 — higher, 11.5%
- CC(C)Oc1cccc(C2NC(=O)c3ccccc3O2)c1 (centres unmarked) — higher, 14.4%
- Cc1ccc(CCN2CC(C(=O)NCCCOC(C)C)CC2=O)cc1 (centres unmarked) — lower, -1.67%
- COc1ccc(CN2C(=O)Cc3c2nc(N)c2c(N)nc(N4CCCCC4)c(C#N)c32)cc1 — higher, 9.23%
- CC1(NC(=O)N2CCOCC2)CCS(=O)(=O)C1 (centres unmarked) — higher, 10.1%
- N#CC1=C(SCC(=O)c2ccccc2)NC2=C(C(=O)CCC2)C1c1ccco1 (centres unmarked) — higher, 13%
- CC(NC(=O)C1CCCN1C(=O)OCc1ccccc1)c1ccccc1 (centres unmarked) — lower, -1.85%
- CCSc1nc2cc(OC)c(OC)cc2c(=O)n1CC — higher, 14.9%
- CCC(=O)N/C(=N/c1nc(C)cc(C)n1)Nc1ccc(C)cc1 — higher, 14.1%
- CC(C)CN(C#N)c1nc(N2CCOCC2)nc(N2CCOCC2)n1 — lower, 4.74%
- O=C1C(=O)N(CCO)C(c2ccc(Br)cc2)/C1=C(\O)c1ccccc1 (centres unmarked) — lower, 7.28%
- Cc1cc(/C=C(\C#N)C(=O)NCc2ccco2)c(C)n1C1CCCC1 — higher, 12.5%
- CC(=O)NC(C)Cc1ccccc1 (centres unmarked) — higher, 12.1%
- CC(=O)Nc1ccc(OC(=O)N2CCCC2)cc1 — lower, 5.45%
- CC1C=CCC2C(=O)N(c3cccc(C(=O)NCc4ccccc4)c3)C(=O)C12 (centres unmarked) — higher, 14.5%
- CC(CCc1ccccc1)NC(=O)c1cncc(Br)c1 (centres unmarked) — lower, -4.43%
- CN(C)CC1CCCCC1OC(=O)c1ccc(Cl)cc1 (centres unmarked) — lower, -4.39%
- COc1ccc(/C=N/NC(=O)c2nc(-c3ccccc3)n(-c3ccccc3)n2)cc1OC — higher, 10.4%
- C/C(=N\NC(=O)CCn1nnc2ccccc21)c1ccco1 — lower, 2.71%
- COC(=O)c1nn(-c2nc(-c3ccc(OC)c(OC)c3)cc(C(F)(F)F)n2)cc1[N+](=O)[O-] — lower, 0.806%
- Cc1nc2cc3c(cc2s1)OCO3 — higher, 16%
- CCC1C(=O)N(C)CCc2ccccc21 (centres unmarked) — higher, 15.3%
- COc1ccc(N2CC(O)=C(c3nc(-c4ccc(F)cc4)cs3)C2=N)cc1 — higher, 11.8%
- Cl.NS(=O)(=O)c1cccc(N2CCNCC2)c1 — higher, 12.5%
- CCCCCN(C(=O)CCC(=O)OCc1ccccc1C(F)(F)F)c1c(N)n(CCCC)c(=O)[nH]c1=O — higher, 8.03%
- NS(=O)(=O)c1cccc(NC(=O)COC(=O)Cc2ccc(S(=O)(=O)N3CCCCC3)s2)c1 — lower, 1.16%
- O=C(Nc1ccc(O)cc1)/C(=C\c1cccs1)NC(=O)c1ccccc1 — lower, 7.03%
- COc1ccc(C)c(NC(=O)C2CC(=O)NC3=C2C(=O)CCC3)c1 (centres unmarked) — lower, 1.89%
- O=C(NCCN1CCCCC1)Nc1ccc(F)cc1 — lower, 4.47%
- Cn1c(=O)c2c(nc(-n3ccnc3)n2Cc2ccccc2)n(C)c1=O — higher, 9.25%
- O=C1CC(NS(=O)(=O)c2ccc(F)cc2)CN1c1ccc2c(c1)OCCO2 (centres unmarked) — lower, -6.33%
- COc1ccc(C(=O)Nn2c(CC(C)C)nc3cc(OC)c(OC)cc3c2=O)c(OC)c1 — higher, 10.1%
- O=C(NC(=S)N1CCc2ccccc21)C1CCC1 — lower, 5.93%
- COC(C(=O)N/N=C(\C)CC(=O)Nc1ccc(N(C)C)cc1)c1ccccc1 (centres unmarked) — higher, 12.1%
- CCOc1cccc(/C=C2\NC(=S)N(c3ccccc3)C2=O)c1O — higher, 15.1%
- CCc1c(C)nc2c(Br)cccc2c1SCCC#N — higher, 14.9%
- Cc1nc2ccc(S(=O)(=O)NC(CC(C)C)C(=O)O)cc2s1 (centres unmarked) — higher, 16.5%
- COc1ccc(S(=O)(=O)N2C3CCC2CC(NC(=O)NC2CCCCC2)C3)cc1 (centres unmarked) — higher, 12.5%
- CC1(C)CC(=O)C(/C=N/n2cnc3ccccc3c2=O)=C(O)C1 — higher, 10.9%
- CC1CCC(NC(=O)c2cc3ccccc3cc2O)CC1 (centres unmarked) — lower, 5.28%
- COc1ccc(CC(NC(C)=O)C(=O)NC2CCN(C(=O)Nc3ccc(Cl)cc3)CC2)cc1OC (centres unmarked) — higher, 10.2%
